The antibiotic and cytotoxicity screens of Wong et al. (2023)
Some of the results follow.

What follows are molecules tested on HSkMC (human skeletal muscle cells) (assay: cytotoxicity call (relative viability < 0.9)). Details: 10 µM.

Structure (SMILES) | cytotoxicity call
COCc1cn(CC[C@H]2CC[C@H](NC(=O)CCN3CCCCC3)[C@H](CO)O2)nn1 | inactive
COc1ccc(CN(C)C[C@H]2Oc3ccc(NS(=O)(=O)c4cn(C)cn4)cc3CC(=O)N([C@@H](C)CO)C[C@H]2C)cc1 | inactive
C[C@H](CO)N1C[C@H](C)[C@@H](CN(C)C(=O)Nc2cccc3ccccc23)Oc2ccc(NC(=O)Nc3ccc(C(F)(F)F)cc3)cc2CC1=O | inactive
Cc1noc(C)c1NC(=O)Nc1ccc2c(c1)C(=O)N([C@H](C)CO)C[C@H](C)[C@@H](CN(C)C(=O)C1CCCCC1)OCCCC[C@@H](C)O2 | inactive
CN(C)c1ccc(O)c2c1C[C@@H]1C[C@@H]3[C@@H](N(C)C)C(=O)C(C(N)=O)=C(O)[C@]3(O)C(=O)[C@H]1C2=O | inactive
COc1cc(NC(=O)c2cccs2)c(C(=O)OCC(=O)c2cc(C)n(-c3ccccc3)c2C)cc1OC | inactive
Cc1ccc(S(=O)(=O)N[C@H](C)C(=O)O)cc1 | inactive
CCCN1CCC2(CC1)NC(=O)N(CC(=O)N1CCN(C(=O)OCC)CC1)C2=O | inactive
C[C@H]1CN([C@@H](C)CO)S(=O)(=O)c2ccc(C#CC(C)(C)O)cc2O[C@@H]1CN(C)Cc1ccccc1 | inactive
O=C(O[C@@H]1O[C@@H]2COC(=O)c3cc(Oc4c(C(=O)O)cc(O)c(O)c4O)c(O)c(O)c3-c3c(cc(O)c(O)c3O)C(=O)O[C@H]2[C@H](OC(=O)c2cc(O)c(O)c(O)c2)[C@H]1OC(=O)c1cc(O)c(O)c(O)c1)c1cc(O)c(O)c(O)c1 | inactive
C[C@H]1CN([C@@H](C)CO)C(=O)c2cc(NC(=O)Cn3cnnn3)ccc2O[C@H]1CN(C)Cc1ccc(C(F)(F)F)cc1 | inactive
